# Data as given in the supplement of paper PMC8728848.
# This is one part of the list.
# Legend:
# Assay in all cases: glycan array binding signal (z-score within array); higher = stronger binding
# Conditions in all cases: glycan notation: IUPAC condensed, linker removed
# [1] = target: Fuc(a1-2)Gal(b1-4)[Fuc(a1-3)]GlcNAc
# Summary of the method: (§1)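 The binding signal is a Z-score computed within each array. Data were drawn from 3228 arrays in the Consortium for Functional Glycomics database, restricted to those with a known protein sequence. Scores were averaged over arrays of the same protein sequence at different concentrations or buffers, and over linkers, and negative values can be taken as non-binding.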
# [2] = target: Fuc(a1-2)Gal(b1-4)[Fuc(a1-3)]GlcNAc(b1-2)Man(a1-3)[Fuc(a1-2)Gal(b1-4)[Fuc(a1-3)]GlcNAc(b1-2)Man(a1-6)]Man(b1-4)GlcNAc(b1-4)[Fuc(a1-6)]GlcNAc
# Summary of the method: as §1
# [3] = target: Fuc(a1-2)Gal(b1-4)[Fuc(a1-3)]GlcNAc(b1-2)[Fuc(a1-2)Gal(b1-4)[Fuc(a1-3)]GlcNAc(b1-4)]Man(a1-3)[Fuc(a1-2)Gal(b1-4)[Fuc(a1-3)]GlcNAc(b1-2)Man(a1-6)]Man(b1-4)GlcNAc(b1-4)GlcNAc
# Summary of the method: as §1
# [4] = target: Fuc(a1-2)Gal(b1-4)[Fuc(a1-3)]GlcNAc(b1-3)Gal(b1-4)[Fuc(a1-3)]GlcNAc
# Summary of the method: as §1
# [5] = target: Fuc(a1-2)Gal(b1-4)[Fuc(a1-3)]GlcNAc(b1-3)Gal(b1-4)[Fuc(a1-3)]GlcNAc(b1-3)Gal(b1-4)[Fuc(a1-3)]GlcNAc
# Summary of the method: as §1
# [6] = target: Fuc(a1-2)Gal(b1-4)[Fuc(a1-3)]GlcNAc(b1-3)GalNAc
# Summary of the method: as §1
# [7] = target: Fuc(a1-2)Gal(b1-4)[Fuc(a1-3)]GlcNAc(b1-3)[Neu5Ac(a2-6)Gal(b1-4)GlcNAc(b1-6)]Gal(b1-4)Glc
# Summary of the method: as §1
# [8] = target: Fuc(a1-2)Gal3S(b1-4)GlcNAc
# Summary of the method: as §1
# [9] = target: Fuc(a1-2)Gal6S(b1-3)GlcNAc
# Summary of the method: as §1
# [10] = target: Fuc(a1-2)Gal6S(b1-3)GlcNAc6S
# Summary of the method: as §1
# Fuc(a1-2)Gal6S(b1-4)Glc = target: Fuc(a1-2)Gal6S(b1-4)Glc
# Summary of the method: as §1
# [11] = target: Fuc(a1-2)Gal6S(b1-4)Glc6S
# Summary of the method: as §1
# Fuc(a1-2)[Gal(a1-3)]Gal = target: Fuc(a1-2)[Gal(a1-3)]Gal
# Summary of the method: as §1
# [12] = target: Fuc(a1-2)[Gal(a1-3)]Gal(b1-3)GalNAc
# Summary of the method: as §1
# [13] = target: Fuc(a1-2)[Gal(a1-3)]Gal(b1-3)GalNAc(b1-3)Gal(a1-4)Gal(b1-4)Glc
# Summary of the method: as §1
# [14] = target: Fuc(a1-2)[Gal(a1-3)]Gal(b1-3)GlcNAc
# Summary of the method: as §1
# [15] = target: Fuc(a1-2)[Gal(a1-3)]Gal(b1-3)GlcNAc(b1-2)Man(a1-3)[Fuc(a1-2)[Gal(a1-3)]Gal(b1-3)GlcNAc(b1-2)Man(a1-6)]Man(b1-4)GlcNAc(b1-4)GlcNAc
# Summary of the method: as §1
# [16] = target: Fuc(a1-2)[Gal(a1-3)]Gal(b1-3)GlcNAc(b1-2)Man(a1-3)[Fuc(a1-2)[Gal(a1-3)]Gal(b1-3)GlcNAc(b1-2)Man(a1-6)]Man(b1-4)GlcNAc(b1-4)[Fuc(a1-6)]GlcNAc
# Summary of the method: as §1
# [17] = target: Fuc(a1-2)[Gal(a1-3)]Gal(b1-3)GlcNAc(b1-3)GalNAc
# Summary of the method: as §1
# [18] = target: Fuc(a1-2)[Gal(a1-3)]Gal(b1-3)GlcNAc(b1-6)GalNAc
# Summary of the method: as §1
# [19] = target: Fuc(a1-2)[Gal(a1-3)]Gal(b1-4)Glc
# Summary of the method: as §1
# [20] = target: Fuc(a1-2)[Gal(a1-3)]Gal(b1-4)GlcNAc
# Summary of the method: as §1
# [21] = target: Fuc(a1-2)[Gal(a1-3)]Gal(b1-4)GlcNAc(b1-2)Man
# Summary of the method: as §1
# [22] = target: Fuc(a1-2)[Gal(a1-3)]Gal(b1-4)GlcNAc(b1-2)Man(a1-3)[Fuc(a1-2)[Gal(a1-3)]Gal(b1-4)GlcNAc(b1-2)Man(a1-6)]Man(b1-4)GlcNAc(b1-4)GlcNAc
# Summary of the method: as §1
# [23] = target: Fuc(a1-2)[Gal(a1-3)]Gal(b1-4)GlcNAc(b1-2)Man(a1-3)[Fuc(a1-2)[Gal(a1-3)]Gal(b1-4)GlcNAc(b1-2)Man(a1-6)]Man(b1-4)GlcNAc(b1-4)[Fuc(a1-6)]GlcNAc
# Summary of the method: as §1
# [24] = target: Fuc(a1-2)[Gal(a1-3)]Gal(b1-4)GlcNAc(b1-3)GalNAc
# Summary of the method: as §1
# [25] = target: Fuc(a1-2)[Gal(a1-3)]Gal(b1-4)GlcNAc(b1-3)[Fuc(a1-2)[Gal(a1-3)]Gal(b1-4)GlcNAc(b1-6)]GalNAc
# Summary of the method: as §1
# [26] = target: Fuc(a1-2)[Gal(a1-3)]Gal(b1-4)GlcNAc(b1-6)GalNAc
# Summary of the method: as §1
# [27] = target: Fuc(a1-2)[Gal(a1-3)]Gal(b1-4)[Fuc(a1-3)]Glc
# Summary of the method: as §1
# [28] = target: Fuc(a1-2)[Gal(a1-3)]Gal(b1-4)[Fuc(a1-3)]GlcNAc
# Summary of the method: as §1
# [29] = target: Fuc(a1-2)[Gal(a1-3)]Gal(b1-4)[Fuc(a1-3)]GlcNAc(b1-3)GalNAc
# Summary of the method: as §1
# [30] = target: Fuc(a1-2)[Gal(a1-4)]Gal(b1-4)GlcNAc
# Summary of the method: as §1
# [31] = target: Fuc(a1-2)[GalNAc(a1-3)]Gal
# Summary of the method: as §1
# [32] = target: Fuc(a1-2)[GalNAc(a1-3)]Gal(b1-3)GalNAc(a1-3)[Fuc(a1-2)]Gal(b1-4)GlcNAc
# Summary of the method: as §1
# [33] = target: Fuc(a1-2)[GalNAc(a1-3)]Gal(b1-3)GalNAc(b1-3)Gal(a1-4)Gal(b1-4)Glc
# Summary of the method: as §1
# [34] = target: Fuc(a1-2)[GalNAc(a1-3)]Gal(b1-3)GlcNAc
# Summary of the method: as §1
# [35] = target: Fuc(a1-2)[GalNAc(a1-3)]Gal(b1-3)GlcNAc(b1-2)Man(a1-3)[Fuc(a1-2)[GalNAc(a1-3)]Gal(b1-3)GlcNAc(b1-2)Man(a1-6)]Man(b1-4)GlcNAc(b1-4)GlcNAc
# Summary of the method: as §1
# [36] = target: Fuc(a1-2)[GalNAc(a1-3)]Gal(b1-3)GlcNAc(b1-2)Man(a1-3)[Fuc(a1-2)[GalNAc(a1-3)]Gal(b1-3)GlcNAc(b1-2)Man(a1-6)]Man(b1-4)GlcNAc(b1-4)[Fuc(a1-6)]GlcNAc
# Summary of the method: as §1
binder,measurement,setting,value
"CFEM-PPl (Pichia pastoris), F2QPV1 (protein) AVATPPACLLACAAEVVKESSDCDALNNIQCICENEGSAIHACLESTCPDGLSSTALQSFEDVCESVGTEANLDE",glycan array binding signal (z-score),[1],-0.355
same,glycan array binding signal (z-score),[2],-0.089
same,glycan array binding signal (z-score),[3],0.038
same,glycan array binding signal (z-score),[4],-0.222
same,glycan array binding signal (z-score),[5],-0.342
same,glycan array binding signal (z-score),[6],0.643
same,glycan array binding signal (z-score),[7],-0.205
same,glycan array binding signal (z-score),[8],-0.03
same,glycan array binding signal (z-score),[9],-0.337
same,glycan array binding signal (z-score),[10],-0.279
same,glycan array binding signal (z-score),Fuc(a1-2)Gal6S(b1-4)Glc,-0.076
same,glycan array binding signal (z-score),[11],-0.192
same,glycan array binding signal (z-score),Fuc(a1-2)[Gal(a1-3)]Gal,-0.049
same,glycan array binding signal (z-score),[12],-0.261
same,glycan array binding signal (z-score),[13],-0.215
same,glycan array binding signal (z-score),[14],-0.267
same,glycan array binding signal (z-score),[15],-0.253
same,glycan array binding signal (z-score),[16],-0.37
same,glycan array binding signal (z-score),[17],-0.292
same,glycan array binding signal (z-score),[18],-0.339
same,glycan array binding signal (z-score),[19],-0.213
same,glycan array binding signal (z-score),[20],-0.122
same,glycan array binding signal (z-score),[21],-0.325
same,glycan array binding signal (z-score),[22],-0.252
same,glycan array binding signal (z-score),[23],-0.291
same,glycan array binding signal (z-score),[24],-0.044
same,glycan array binding signal (z-score),[25],-0.125
same,glycan array binding signal (z-score),[26],-0.255
same,glycan array binding signal (z-score),[27],-0.319
same,glycan array binding signal (z-score),[28],-0.197
same,glycan array binding signal (z-score),[29],-0.033
same,glycan array binding signal (z-score),[30],-0.168
same,glycan array binding signal (z-score),[31],-0.197
same,glycan array binding signal (z-score),[32],-0.357
same,glycan array binding signal (z-score),[33],-0.315
same,glycan array binding signal (z-score),[34],-0.157
same,glycan array binding signal (z-score),[35],-0.271
same,glycan array binding signal (z-score),[36],-0.118
